Laboratory results reported in paper PMC8317129 (ACS infectious diseases, 2021).

Test system: N. gonorrhoeae ATCC 700825
Assay: time-kill
Details: 10 × MIC; for bacteriostatic or bactericidal activity: 24 hours

Structure (SMILES) | bacteriostatic or bactericidal activity | reduction of bacterial burden compared to AZM [log10] | reduction of bacterial CFU count compared to DMSO (24-hour time point) [log10]
CC[C@H]1OC(=O)[C@H](C)[C@@H](O[C@H]2C[C@@](C)(OC)[C@@H](O)[C@H](C)O2)[C@H](C)[C@@H](O[C@@H]2O[C@H](C)C[C@H](N(C)C)[C@H]2O)[C@](C)(O)C[C@@H](C)CN(C)[C@H](C)[C@@H](O)[C@]1(C)O [AZI, azithromycin] | bactericidal |  | 
NS(=O)(=O)c1nnc(NC(=O)CC2CCCCC2)s1 [analog 20] | bacteriostatic | 2.4 | 
CC(=O)Nc1nnc(S(N)(=O)=O)s1 [AZM, acetazolamide] |  |  | ≥ 3
NS(=O)(=O)c1nnc(NC(=O)CCc2ccccc2)s1 [analog 23] | bacteriostatic |  | 
